We go through three molecules from paper PMC4148588.

The target of assay [1] is T1, Rpt3 (yeast two-hybrid fusion) (yeast) (UniProt P33298).
T1 sequence: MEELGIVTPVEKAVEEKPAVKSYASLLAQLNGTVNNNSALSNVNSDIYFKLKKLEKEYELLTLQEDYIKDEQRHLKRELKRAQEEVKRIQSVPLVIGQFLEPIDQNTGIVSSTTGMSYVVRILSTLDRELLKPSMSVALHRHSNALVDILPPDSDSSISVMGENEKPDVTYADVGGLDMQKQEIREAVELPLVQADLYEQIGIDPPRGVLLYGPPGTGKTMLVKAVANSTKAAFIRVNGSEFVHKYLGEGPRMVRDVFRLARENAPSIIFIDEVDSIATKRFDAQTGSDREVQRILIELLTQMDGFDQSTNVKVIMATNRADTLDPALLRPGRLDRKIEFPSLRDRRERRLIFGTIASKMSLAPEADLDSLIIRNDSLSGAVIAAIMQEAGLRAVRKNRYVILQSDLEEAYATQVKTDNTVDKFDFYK
Kind of assay: two-hybrid; GAD and GBD fusions in yeast; growth on medium lacking uracil, leucine and histidine (-ULH), and also adenine (-ULHA) as stringent selection.

The target of assay [2] is Rpt6 (yeast two-hybrid fusion) (yeast) (UniProt Q01939). The description is as above.
The target of assay [3] is T2, Rpt6-NT-MBP (1-140) (yeast) (UniProt Q01939).
T2 sequence: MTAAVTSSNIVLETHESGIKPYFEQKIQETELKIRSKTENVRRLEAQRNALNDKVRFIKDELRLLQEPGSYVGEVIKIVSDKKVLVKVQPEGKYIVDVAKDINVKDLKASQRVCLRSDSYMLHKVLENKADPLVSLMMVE
The assay is described as follows: pull-down + SEC; Rpt6-NT-MBP, Rpt3-NT-GST and His-Adc17 coexpressed in E. coli, purified on amylose resin, eluted with maltose, gel filtration on Superdex 200 10/300 GL in 25 mM Tris-HCl pH 8.0, 100 mM NaCl; identity of proteins confirmed by mass spectrometry. On the technique in general: In gel filtration, larger molecules generally elute earlier.

Assay [4] deals with T3, GST-Rpt6-NT (1-152) (yeast) (UniProt Q01939).
T3 sequence: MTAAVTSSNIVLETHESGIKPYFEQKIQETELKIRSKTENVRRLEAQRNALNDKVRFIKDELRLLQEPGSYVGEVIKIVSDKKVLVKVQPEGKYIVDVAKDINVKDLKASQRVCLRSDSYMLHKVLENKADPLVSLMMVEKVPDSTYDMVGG
The assay is described as follows: pull-down; the two proteins coexpressed in E. coli, purified on Ni-NTA or glutathione Sepharose 4B; lysis buffer 25 mM Tris-HCl pH 8.0, 300 mM NaCl, 10% glycerol; SDS-PAGE, Coomassie blue.

Assay [5] concerns the target T4, GST-Rpt3-NT (1-162) (yeast) (UniProt P33298).
T4 sequence: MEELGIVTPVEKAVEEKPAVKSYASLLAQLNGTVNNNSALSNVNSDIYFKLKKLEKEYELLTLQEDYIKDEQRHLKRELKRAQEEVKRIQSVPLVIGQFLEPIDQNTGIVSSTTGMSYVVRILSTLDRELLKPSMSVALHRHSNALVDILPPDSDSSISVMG
Described as above.

Residue numbers refer to the chain shown, from its start. In names and notes the source's numbering stands. No constants are given. Whether binding was seen depends on the method and setting. For part of these data: In cells and extracts the contact can be indirect. Some results given as binding are weak or reduced against the parent protein; the word gives no strength. Tags and fused reporters may be left off the sequences shown.

B1: Adc17 (yeast two-hybrid fusion) (protein, UniProt Q12513 1-150)
chain: MCSAGGIRRPIQIEEFKTAISGMSDMELAQIKTEIENSINHLQRSNARLGKYIAKLEGADDRLEADDSDDLENIDSGDLALYKDSVRENEIVLNNYNERVDALEQETVYRKTGHGKSKHEVEAKDNTNKGPDVDMDNSNVDVVTPNSIFI
On to B1, for which the figures for the binding result in assay [1] and in assay [2] were “no binding” and “binds”, respectively.

B2: His-Adc17 (protein, UniProt Q12513 1-150)
chain: B1 chain
For the molecule B2, the binding result in assay [3] is “binds”; in assay [4] it was “binds”; in assay [5] it was “no binding”.

B3: His-Adc17 L93D (protein, UniProt Q12513 1-150)
chain: B1 chain with L93D
For the molecule B3, the binding result in assay [4] is recorded as “no binding”.
